From publication PMC11155029
These are yes or no findings as the source states them, for the method shown. Binding seen in cells or lysates may run through a third protein. Some binding calls cover weakened binding; strength is not graded here.

Biological target: TAR-DNA binding protein 43 (TDP43) (human (endogenous in SH-SY5Y, HEK293 and human spinal cord tissue)), Q13148
Test: proximity ligation; PLA in HEK293 cells, with and without MMS (DNA damage induction); positive control; foci per nucleus
Settings: remark: other sources report otherwise

B1: X-ray repair cross-complementing protein 4 (XRCC4), Q13426 1-336 (protein)
chain: MERKISRIHLVSEPSITHFLQVSWEKTLESGFVITLTDGHSAWTGTVSESEISQEADDMAMEKGKYVGELRKALLSGAGPADVYTFNFSKESCYFFFEKNLKDVSFRLGSFNLEKVENPAEVIRELICYCLDTIAENQAKNEHLQKENERLLRDWNDVQGRFEKCVSAKEALETDLYKRFILVLNEKKTKIRSLHNKLLNAAQEREKDIKQEGETAICSEMTADRDPVYDESTDEESENQTDLSGLASAAVSKDDSIISSLDVTDIAPSRKRRQRMQRNLGTEPKMAPQENQLQEKENSRPDSSLPETSKKEHISAENMSLETLRNSSPEDLFDEI
binding: binds
